Laboratory results from the supplement of paper PMC8728848.
The other results are listed elsewhere or left out.

Assays:
Test in all cases: glycan array binding signal (z-score within array); higher = stronger binding
Settings in all cases: glycan notation: IUPAC condensed, linker removed
[1] = molecular target: Fuc(a1-2)[Gal(a1-3)]Gal(b1-4)GlcNAc(b1-2)Man
Summary of the method: (§1)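 Glycan array data were curated from 3228 arrays in the Consortium for Functional Glycomics database and kept only where the protein sequence was available. Glycan names were converted to IUPAC-condensed notation, and columns mapping to the same glycan were averaged. The binding signal is a within-array Z-score, averaged across arrays of the same protein sequence at different concentrations or buffers and across linkers. Negative Z-scores can be read as non-binding.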

[2] = molecular target: Fuc(a1-2)[Gal(a1-3)]Gal(b1-4)GlcNAc(b1-2)Man(a1-3)[Fuc(a1-2)[Gal(a1-3)]Gal(b1-4)GlcNAc(b1-2)Man(a1-6)]Man(b1-4)GlcNAc(b1-4)GlcNAc
Summary of the method: as §1

[3] = molecular target: Fuc(a1-2)[Gal(a1-3)]Gal(b1-4)GlcNAc(b1-2)Man(a1-3)[Fuc(a1-2)[Gal(a1-3)]Gal(b1-4)GlcNAc(b1-2)Man(a1-6)]Man(b1-4)GlcNAc(b1-4)[Fuc(a1-6)]GlcNAc
Summary of the method: as §1

[4] = molecular target: Fuc(a1-2)[Gal(a1-3)]Gal(b1-4)GlcNAc(b1-3)GalNAc
Summary of the method: as §1

[5] = molecular target: Fuc(a1-2)[Gal(a1-3)]Gal(b1-4)GlcNAc(b1-6)GalNAc
Summary of the method: as §1

[6] = molecular target: Fuc(a1-2)[Gal(a1-3)]Gal(b1-4)[Fuc(a1-3)]Glc
Summary of the method: as §1

[7] = molecular target: Fuc(a1-2)[Gal(a1-3)]Gal(b1-4)[Fuc(a1-3)]GlcNAc
Summary of the method: as §1

[8] = molecular target: Fuc(a1-2)[Gal(a1-3)]Gal(b1-4)[Fuc(a1-3)]GlcNAc(b1-3)GalNAc
Summary of the method: as §1

[9] = molecular target: Fuc(a1-2)[Gal(a1-4)]Gal(b1-4)GlcNAc
Summary of the method: as §1

[10] = molecular target: Fuc(a1-2)[GalNAc(a1-3)]Gal
Summary of the method: as §1

[11] = molecular target: Fuc(a1-2)[GalNAc(a1-3)]Gal(b1-3)GalNAc(a1-3)[Fuc(a1-2)]Gal(b1-4)GlcNAc
Summary of the method: as §1

[12] = molecular target: Fuc(a1-2)[GalNAc(a1-3)]Gal(b1-3)GalNAc(b1-3)Gal(a1-4)Gal(b1-4)Glc
Summary of the method: as §1

[13] = molecular target: Fuc(a1-2)[GalNAc(a1-3)]Gal(b1-3)GlcNAc
Summary of the method: as §1

[14] = molecular target: Fuc(a1-2)[GalNAc(a1-3)]Gal(b1-3)GlcNAc(b1-2)Man(a1-3)[Fuc(a1-2)[GalNAc(a1-3)]Gal(b1-3)GlcNAc(b1-2)Man(a1-6)]Man(b1-4)GlcNAc(b1-4)GlcNAc
Summary of the method: as §1

[15] = molecular target: Fuc(a1-2)[GalNAc(a1-3)]Gal(b1-3)GlcNAc(b1-2)Man(a1-3)[Fuc(a1-2)[GalNAc(a1-3)]Gal(b1-3)GlcNAc(b1-2)Man(a1-6)]Man(b1-4)GlcNAc(b1-4)[Fuc(a1-6)]GlcNAc
Summary of the method: as §1

[16] = molecular target: Fuc(a1-2)[GalNAc(a1-3)]Gal(b1-3)GlcNAc(b1-3)GalNAc
Summary of the method: as §1

[17] = molecular target: Fuc(a1-2)[GalNAc(a1-3)]Gal(b1-3)GlcNAc(b1-6)GalNAc
Summary of the method: as §1

[18] = molecular target: Fuc(a1-2)[GalNAc(a1-3)]Gal(b1-4)Glc
Summary of the method: as §1

[19] = molecular target: Fuc(a1-2)[GalNAc(a1-3)]Gal(b1-4)GlcNAc
Summary of the method: as §1

[20] = molecular target: Fuc(a1-2)[GalNAc(a1-3)]Gal(b1-4)GlcNAc(b1-2)Man
Summary of the method: as §1

[21] = molecular target: Fuc(a1-2)[GalNAc(a1-3)]Gal(b1-4)GlcNAc(b1-2)Man(a1-3)[Fuc(a1-2)[GalNAc(a1-3)]Gal(b1-4)GlcNAc(b1-2)Man(a1-6)]Man(b1-4)GlcNAc(b1-4)GlcNAc
Summary of the method: as §1

[22] = molecular target: Fuc(a1-2)[GalNAc(a1-3)]Gal(b1-4)GlcNAc(b1-2)Man(a1-3)[Fuc(a1-2)[GalNAc(a1-3)]Gal(b1-4)GlcNAc(b1-2)Man(a1-6)]Man(b1-4)GlcNAc(b1-4)[Fuc(a1-6)]GlcNAc
Summary of the method: as §1

[23] = molecular target: Fuc(a1-2)[GalNAc(a1-3)]Gal(b1-4)GlcNAc(b1-3)Gal(b1-4)GlcNAc
Summary of the method: as §1

[24] = molecular target: Fuc(a1-2)[GalNAc(a1-3)]Gal(b1-4)GlcNAc(b1-3)Gal(b1-4)GlcNAc(b1-3)Gal(b1-4)GlcNAc
Summary of the method: as §1

[25] = molecular target: Fuc(a1-2)[GalNAc(a1-3)]Gal(b1-4)GlcNAc(b1-3)GalNAc
Summary of the method: as §1

[26] = molecular target: Fuc(a1-2)[GalNAc(a1-3)]Gal(b1-4)GlcNAc(b1-3)[Fuc(a1-2)[GalNAc(a1-3)]Gal(b1-4)GlcNAc(b1-6)]GalNAc
Summary of the method: as §1

[27] = molecular target: Fuc(a1-2)[GalNAc(a1-3)]Gal(b1-4)GlcNAc(b1-6)GalNAc
Summary of the method: as §1

[28] = molecular target: Fuc(a1-2)[GalNAc(a1-3)]Gal(b1-4)[Fuc(a1-3)]GlcNAc
Summary of the method: as §1

[29] = molecular target: Fuc(a1-2)[GalNAc(a1-3)]Gal(b1-4)[Fuc(a1-3)]GlcNAc(b1-3)GalNAc
Summary of the method: as §1

[30] = molecular target: Fuc(a1-2)[GalNAc(a1-4)]Gal(b1-4)GlcNAc
Summary of the method: as §1

B1: ECA (Erythrina cristagalli), P83410 (protein)
chain: VETISFSFSEFEPGNDNLTLQGAALITQSGVLQLTKINQNGMPAWDSTGRTLYTKPVHMWDSTTGTVASFETRFSFSIEQPYTRPLPADGLVFFMGPTKSKPAQGYGYLGVFNNSKQDNSYQTLAVEFDTFSNPWDPPQVPHIGIDVNSIRSIKTQPFQLDNGQVANVVIKYDAPSKILHVVLVYPSSGAIYTIAEIVDVKQVLPDWVDVGLSGATGAQRDAAETHDVYSWSFQASLPE
[1]
  glycan array binding signal (z-score): -0.485
[2]
  glycan array binding signal (z-score): -0.141
[3]
  glycan array binding signal (z-score): -0.154
[4]
  glycan array binding signal (z-score): -0.461
[5]
  glycan array binding signal (z-score): -0.455
[6]
  glycan array binding signal (z-score): -0.408
[7]
  glycan array binding signal (z-score): -0.014
[8]
  glycan array binding signal (z-score): -0.399
[9]
  glycan array binding signal (z-score): -0.203
[10]
  glycan array binding signal (z-score): -0.429
[11]
  glycan array binding signal (z-score): -0.081
[12]
  glycan array binding signal (z-score): -0.337
[13]
  glycan array binding signal (z-score): -0.351
[14]
  glycan array binding signal (z-score): -0.416
[15]
  glycan array binding signal (z-score): -0.087
[16]
  glycan array binding signal (z-score): -0.329
[17]
  glycan array binding signal (z-score): -0.412
[18]
  glycan array binding signal (z-score): -0.342
[19]
  glycan array binding signal (z-score): -0.234
[20]
  glycan array binding signal (z-score): -0.085
[21]
  glycan array binding signal (z-score): -0.21
[22]
  glycan array binding signal (z-score): 0.097
[23]
  glycan array binding signal (z-score): -0.266
[24]
  glycan array binding signal (z-score): 0.958
[25]
  glycan array binding signal (z-score): -0.051
[26]
  glycan array binding signal (z-score): -0.238
[27]
  glycan array binding signal (z-score): -0.336
[28]
  glycan array binding signal (z-score): -0.066
[29]
  glycan array binding signal (z-score): -0.227
[30]
  glycan array binding signal (z-score): -0.267
